From publication PMC4336329 (PLoS ONE, 2015)
Out of some 310,000 compounds screened, about 2,200 (0.71%) showed an effect of 50% or more. The effect is printed as a negative number. This is one part of the list. *1 amine or outer side, *2 acyl side, *3 side chain or, on linkers, in order; H or OH if unused. Where a SMILES comes first, the peptide text is derived from it. Bridges are numbered along the chain shown (N, C = ends). [ ]: non-standard residue; d: D form. ξ: configuration not given here. hSer(Ph(2-I,4-NO2,6-CO)) = O=C([C@H](CCOc1c(I)cc([N+](=O)[O-])cc1C(=O)[*:3])N[*:1])[*:2]; ξD = NC(CC(=O)O)C(=O)O

Biological target: human ether-à-go-go-related gene (hERG) potassium channel (human, UniProt Q12809)
Test: primary screen, population patch clamp on CHO cells stably expressing hERG

Sequence of human ether-à-go-go-related gene (hERG) potassium channel (Q12809 whole entry, looked up): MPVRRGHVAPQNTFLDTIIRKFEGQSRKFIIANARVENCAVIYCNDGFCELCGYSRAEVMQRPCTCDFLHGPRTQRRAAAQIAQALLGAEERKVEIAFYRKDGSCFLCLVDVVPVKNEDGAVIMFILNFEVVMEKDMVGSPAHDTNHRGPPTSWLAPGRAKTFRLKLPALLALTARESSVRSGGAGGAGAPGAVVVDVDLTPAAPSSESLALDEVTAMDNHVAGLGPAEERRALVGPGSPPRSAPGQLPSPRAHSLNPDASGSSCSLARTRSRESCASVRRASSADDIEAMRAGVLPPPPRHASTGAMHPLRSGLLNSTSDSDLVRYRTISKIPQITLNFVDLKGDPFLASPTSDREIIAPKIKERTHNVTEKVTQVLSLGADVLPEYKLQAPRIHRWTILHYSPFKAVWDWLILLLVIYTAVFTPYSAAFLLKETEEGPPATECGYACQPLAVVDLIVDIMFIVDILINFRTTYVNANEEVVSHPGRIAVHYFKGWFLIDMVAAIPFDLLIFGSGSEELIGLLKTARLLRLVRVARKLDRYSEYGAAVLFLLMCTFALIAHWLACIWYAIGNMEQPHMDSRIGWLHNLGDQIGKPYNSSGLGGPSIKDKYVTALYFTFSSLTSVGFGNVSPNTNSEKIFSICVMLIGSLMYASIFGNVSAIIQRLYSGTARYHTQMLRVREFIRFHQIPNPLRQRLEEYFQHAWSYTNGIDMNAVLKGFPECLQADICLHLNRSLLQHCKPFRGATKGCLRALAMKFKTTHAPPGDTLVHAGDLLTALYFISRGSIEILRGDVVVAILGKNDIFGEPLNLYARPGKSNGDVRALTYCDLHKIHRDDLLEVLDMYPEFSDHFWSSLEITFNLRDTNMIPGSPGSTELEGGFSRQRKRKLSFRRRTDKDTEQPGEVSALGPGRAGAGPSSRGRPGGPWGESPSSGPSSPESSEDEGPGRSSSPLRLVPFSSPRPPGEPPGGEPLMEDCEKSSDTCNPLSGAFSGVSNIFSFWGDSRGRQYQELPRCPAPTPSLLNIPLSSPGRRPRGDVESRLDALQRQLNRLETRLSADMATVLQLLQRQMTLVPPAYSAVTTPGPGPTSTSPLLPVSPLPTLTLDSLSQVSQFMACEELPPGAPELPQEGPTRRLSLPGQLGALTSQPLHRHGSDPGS

| Structure (SMILES) | hERG current change (%, negative = inhibition) at 1uM |
| --- | --- |
| CCN1CCN(Cc2ccc(NC(=O)CC3Oc4ccc(C)cc4NC3=O)cc2)CC1 (stereo not shown) | 5.32% |
| COc1ccc(CNC(=O)C(c2ccco2)N(C(=O)c2ccccn2)c2ccccc2)cc1 (stereo not shown) | 8.96% |
| O=C(CN1CCOCC1)Nc1nc(-c2ccccc2)cs1 | 11.4% |
| COc1ccccc1NC(=O)c1ccccc1NC(=O)c1ccccc1C(=O)O | 12.9% |
| Cc1ccc(C)c(NS(=O)(=O)c2ccc(-c3ccc(=O)[nH]n3)o2)c1 | 10.7% |
| CN1C(=O)C(/C(N)=N/NC(=O)c2ccccc2)C2CC1(C)Oc1ccccc12 (stereo not shown) | 12.3% |
| COc1ccccc1C1CCN(c2ccc([N+](=O)[O-])c(OC)c2)CC1 | 8.48% |
| CCOc1cc(C(=O)Nc2ccc(C)cc2O)ccc1OCC(=O)N1CCOCC1 | 0.439% |
| Cc1ccc(OCc2nnc(SCC(=O)c3cccs3)n2-c2ccccc2)cc1C | 8.53% |
| O=C(NC(Nc1nc2ccc([N+](=O)[O-])cc2s1)(C(F)(F)F)C(F)(F)F)c1ccccc1Cl | -0.905% |
| O=C(Cn1nc(CNc2ccc(Br)cc2)[n+]2c1CCCCC2)c1ccc([N+](=O)[O-])cc1.[Br-] | -11.5% |
| CC(=O)Nc1ccc(NC(=O)c2ccc(S(=O)(=O)N(C)c3ccccc3)cc2)cc1 | 15.1% |
| Cc1ccc2cc(CN(Cc3ccco3)C(=O)NC3CCCCC3)c(=O)[nH]c2c1C | -25.2% |
| Cc1c(OC(C)C(=O)NCCN2CCOCC2)ccc2c(-c3ccccc3)cc(=O)oc12 (stereo not shown) | -1.69% |
| CCOC(=O)c1cccc(NC(=O)CCc2nnc3ccc(N4CCOCC4)nn23)c1 | 11.7% |
| COc1ccc(/C(C)=N/Nc2nccnc2Cl)cc1 | 5.66% |
| CC(C)(C)NC(=O)c1cc(-c2ccccc2)n[nH]1 | 28.4% |
| COc1ccc(C(=O)Nc2ccc(S(=O)(=O)Nc3onc(C)c3C)cc2)cc1 | 9.09% |
| CCOC(=O)C1CCN(S(=O)(=O)c2ccc(C)c(C)c2)CC1 | 7.04% |
| Cc1ccc(NC(=O)CN2C(=O)NC3(CCCc4ccccc43)C2=O)c([N+](=O)[O-])c1 (stereo not shown) | -20.2% |
| CCOC(=O)N1CCC(NC(=O)CS(=O)Cc2nc(-c3ccccc3C)oc2C)CC1 (stereo not shown) | 3.57% |
| NC(=O)C(CC(=O)O)NC(=O)[C@@H]1CCOc2c(I)cc([N+](=O)[O-])cc2C(=O)N[C@@H](CCC(=O)O)C(=O)N[C@@H](CO)C(=O)N1 (stereo partly shown) (ES[hSer(Ph(2-I,4-NO2,6-CO))][ξD]-NH2; lactam N-3) | -6.53% |
| O=C(OCc1ccc(Cl)c(Cl)c1)c1cccnc1Cl | 20.2% |
| Cc1cc(C)c2c(=O)cc(C(F)F)oc2c1 | 9.75% |
| Cc1ccc(-c2nnc(SCC#CCOC(=O)c3ccco3)o2)cc1 | 11.2% |
| CCOC(=O)c1cc(CC)sc1NC(=O)CC1Sc2ccc(C(F)(F)F)cc2NC1=O (stereo not shown) | 17.9% |

| Structure (SMILES) | hERG current change (%, negative = inhibition) at 1uM |
| --- | --- |
| CCCCN1C(=O)N(c2ccccc2Cl)C(C)(O)CC1(C)C (stereo not shown) | 17.3% |
| Cc1cccc(NC(=O)c2ccc(S(=O)(=O)C(F)F)cc2)c1C | 10.9% |
| CN(C)c1nc(SCc2ccccc2Cl)nc2c1CCCC2 | 11.7% |
| COc1ccc(-c2noc(N3CCC(C(=O)Nc4ccc(F)cc4)CC3)n2)cc1 | -0.13% |
| CC1CN(C(=O)c2cccc(Oc3ccccc3)c2)CC(C)O1 (stereo not shown) | 19.7% |
| CC(=O)c1ccc(NC(=S)N2CCCC2)cc1 | 15.2% |
| C=CCSC1=C(C#N)C(c2ccccc2Cl)C(C(=O)c2cccs2)C(O)(C(F)(F)F)N1 (stereo not shown) | 3.64% |
| O=C(CSCCNS(=O)(=O)c1ccccc1)Nc1ccccc1 | 4.03% |
| COc1ccccc1OCc1ccc(C(=O)NN)cc1 | 5.11% |
| CC(C)Oc1ccc(CN2CCC(n3nccc3NC(=O)CCc3ccccc3)CC2)cc1 | -86.3% |
| CC(C)CNC(=O)NC(=O)COC(=O)COc1ccc(Cl)cc1Cl | 11.3% |
| COc1ccc(NS(=O)(=O)c2cccc(NC(=O)NC3CCCCC3)c2)cc1 | 9.84% |
| N/C(Cc1ccc([N+](=O)[O-])cc1)=N\OC(=O)c1cccc(Br)c1 | -11.9% |
| C[C@@H](Oc1ccccc1)c1nnn(Cc2ccccc2)c1-c1c([C@@H](C)Oc2ccccc2)nnn1Cc1ccccc1 | 6.17% |
| N/C(=N\OC(=O)Cc1cccs1)c1ccc([N+](=O)[O-])cc1 | 6.94% |
| C=CCn1c(-c2cccnc2Cl)nc2cc(Cl)c(Cl)cc21 | 16.4% |
| CC(=O)Nc1cc(C(=O)N2CCC3(CC2)OCCO3)ccc1Sc1ccc(C)cc1 | -0.665% |
| O=C(COC(=O)c1cncc(Br)c1)NC1CCCC1 | 9.2% |
| O=C(CCc1ccncc1)NC1CCCc2c1cnn2-c1ccc(F)cc1F (stereo not shown) | 3.41% |
| COc1ccc(NC(=O)COC(=O)[C@@H](NC(=O)c2c(F)cccc2F)C(C)C)cc1 | 4.65% |
| Cc1ccc(-n2ncc3c(NNC(=O)c4ccco4)ncnc32)cc1Cl | 16.1% |
| c1ccc2c(c1)CCN(c1nc3cc4c(cc3s1)OCO4)C2 | 12.9% |
| CCOC(=O)c1cc(-c2ccc(OC)cc2)n(CCC(=O)NC2CCN(Cc3ccccc3)CC2)c1C | -19.9% |
| O=S(=O)(NCC1CCCO1)c1ccc(S(=O)(=O)N(Cc2ccc(F)cc2)Cc2ccco2)cc1 (stereo not shown) | 6.06% |
| CC(=O)c1nn(-c2cccc(Br)c2)cc1C(=O)c1ccc(Br)cc1 | 8.65% |
| CCCCNc1nc(C)c(C(C)=O)cc1C#N | 19.1% |
